Results from the supplement of paper PMC4967469.
pIC50: −log10 of the molar value. Lines with a small IC50 respond at low doses; a fit beyond the top or the lowest dose is shown as a bound at that dose. The AUC spans the tested range (256-fold, ending at the top dose) of the same fit; the more sensitive the line, the further below 1. An inferred top dose was derived from the fitted curves, not read from the paper. For part of these data: Drugs with an entry number were screened twice under separate entries, and the two screens often disagree.

compound: Cc1cccc(-c2[nH]c(C(C)(C)C)nc2-c2ccc3nccnc3c2)n1 [SB-525334]; assay: Viability of human cancer cell lines after 72 h of drug (GDSC screen); conditions: top dose 20 µM; top dose inferred
Description: (§1)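 Human cancer cell lines in 384-well plates, medium with 10% serum, drug for 72 h over a 256-fold dose range (nine 2-fold or five 4-fold steps up to the top dose). Adherent lines were fixed and stained with the nucleic acid dye Syto60, suspension lines read with resazurin; signal relative to control wells, capped at 0 and 100%. One two-parameter sigmoid per drug and line, fitted in a mixed model over all curves with the slope shared within a line.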

Cell Line | AUC | pIC50
SAT (head and neck, adherent) | 0.953 | < 4.70
SK-MEL-24 (melanoma, adherent) | 0.849 | < 4.70
SKN-3 (head and neck, adherent) | 0.978 | < 4.70
SW756 (cervix, adherent) | 0.957 | < 4.70
SW1990 (pancreas, adherent) | 0.978 | < 4.70
U251 (glioma, adherent) | 0.721 | 5.29
UM-UC-3 (bladder, adherent) | 0.943 | < 4.70
UMC-11 (lung carcinoid, adherent) | 0.975 | < 4.70

compound: Cc1cc(N2CCOCC2)cc2[nH]c(-c3c(NC[C@@H](O)c4cccc(Cl)c4)cc[nH]c3=O)nc12 [BMS-536924]; assay: as above; conditions: top dose 4 µM; screen: GDSC drug entry 1091; top dose inferred
Description: as §1

Cell Line | AUC | pIC50
ACHN (kidney, adherent) | 0.904 | < 5.40
AN3-CA (endometrium, adherent) | 0.856 | 5.43
BICR22 (head and neck, adherent) | 0.941 | < 5.40
C3A (liver, adherent) | 0.943 | < 5.40
CAKI-1 (kidney, adherent) | 0.92 | < 5.40
Daoy (medulloblastoma, adherent) | 0.986 | < 5.40
EFM-19 (breast, adherent) | 0.856 | < 5.40
HMV-II (melanoma, adherent) | 0.889 | < 5.40
HOP-92 (large cell lung carcinoma, adherent) | 0.926 | < 5.40
HeLa (cervix, adherent) | 0.871 | 5.46
IGR-37 (melanoma, adherent) | 0.802 | 5.75
JHH-6 (liver, adherent) | 0.964 | < 5.40
JHU-011 (head and neck, adherent) | 0.979 | < 5.40
KNS-62 (lung squamous cell carcinoma, adherent) | 0.972 | < 5.40
KYSE-510 (oesophagus, adherent) | 0.957 | < 5.40
M14 (melanoma, adherent) | 0.869 | < 5.40
MCF7 (breast, adherent) | 0.777 | 5.78
MDA-MB-231 (breast, adherent) | 0.96 | < 5.40
MDA-MB-436 (breast, adherent) | 0.963 | < 5.40
ME-180 (cervix, adherent) | 0.908 | < 5.40
MKN45 (stomach, adherent) | 0.97 | < 5.40

Cell Line | AUC | pIC50
Mewo (melanoma, adherent) | 0.959 | < 5.40
NCI-H838 (lung adenocarcinoma, adherent) | 0.81 | 5.66
NCI-H1703 (lung adenocarcinoma, adherent) | 0.877 | < 5.40
NCI-H2029 (small cell lung carcinoma, adherent) | 0.965 | < 5.40
OAW-42 (ovary, adherent) | 0.865 | < 5.40
OSC-19 (head and neck, adherent) | 0.939 | < 5.40
OVCAR-5 (ovary, adherent) | 0.783 | 5.69
PA-TU-8988T (pancreas, adherent) | 0.884 | < 5.40
PANC-08-13 (pancreas, adherent) | 0.846 | < 5.40
PC-3 (prostate, adherent) | 0.975 | < 5.40
RCC-MF (kidney, adherent) | 0.9 | < 5.40
RMG-I (ovary, adherent) | 0.869 | < 5.40
SK-MEL-24 (melanoma, adherent) | 0.911 | < 5.40
SKN-3 (head and neck, adherent) | 0.912 | < 5.40
SW756 (cervix, adherent) | 0.949 | < 5.40
SW1990 (pancreas, adherent) | 0.954 | < 5.40
U251 (glioma, adherent) | 0.982 | < 5.40
U-266 (myeloma, semi-adherent) | 0.922 | < 5.40
UM-UC-3 (bladder, adherent) | 0.987 | < 5.40
UMC-11 (lung carcinoid, adherent) | 0.99 | < 5.40

compound: CC(C)=CC[C@@H](O)C1=CC(=O)c2c(O)ccc(O)c2C1=O [Shikonin]; assay: as above; conditions: top dose 16 µM; top dose inferred
Description: as §1

Cell Line | AUC | pIC50
ACHN (kidney, adherent) | 0.313 | 6.56
AN3-CA (endometrium, adherent) | 0.295 | 6.60
BICR22 (head and neck, adherent) | 0.661 | 5.52
C3A (liver, adherent) | 0.414 | 6.24
CAKI-1 (kidney, adherent) | 0.445 | 6.18
Daoy (medulloblastoma, adherent) | 0.204 | 6.83
EFM-19 (breast, adherent) | 0.349 | 6.51
HMV-II (melanoma, adherent) | 0.168 | 7.13
HOP-92 (large cell lung carcinoma, adherent) | 0.534 | 5.90
HeLa (cervix, adherent) | 0.524 | 5.94
IGR-37 (melanoma, adherent) | 0.324 | 6.47
JHH-6 (liver, adherent) | 0.658 | 5.56
JHU-011 (head and neck, adherent) | 0.357 | 6.39
KYSE-510 (oesophagus, adherent) | 0.336 | 6.42
M14 (melanoma, adherent) | 0.479 | 6.06
MCF7 (breast, adherent) | 0.453 | 6.13
MDA-MB-231 (breast, adherent) | 0.546 | 5.87
MDA-MB-436 (breast, adherent) | 0.571 | 5.79
ME-180 (cervix, adherent) | 0.35 | 6.43
MKN45 (stomach, adherent) | 0.449 | 6.15

Cell Line | AUC | pIC50
Mewo (melanoma, adherent) | 0.502 | 6.00
NCI-H838 (lung adenocarcinoma, adherent) | 0.87 | < 4.80
NCI-H1703 (lung adenocarcinoma, adherent) | 0.604 | 5.69
NCI-H2029 (small cell lung carcinoma, adherent) | 0.892 | 4.81
OAW-42 (ovary, adherent) | 0.473 | 6.08
OCUM-1 (stomach, adherent) | 0.778 | 5.14
OSC-19 (head and neck, adherent) | 0.346 | 6.44
OVCAR-5 (ovary, adherent) | 0.51 | 5.97
PA-TU-8988T (pancreas, adherent) | 0.527 | 5.92
PANC-08-13 (pancreas, adherent) | 0.686 | 5.41
PC-3 (prostate, adherent) | 0.515 | 5.95
RMG-I (ovary, adherent) | 0.446 | 6.16
SK-MEL-24 (melanoma, adherent) | 0.559 | 5.82
SKN-3 (head and neck, adherent) | 0.707 | 5.36
SW756 (cervix, adherent) | 0.438 | 6.18
SW1990 (pancreas, adherent) | 0.514 | 5.96
U251 (glioma, adherent) | 0.504 | 5.99
UM-UC-3 (bladder, adherent) | 0.477 | 6.06
UMC-11 (lung carcinoid, adherent) | 0.801 | 5.16

compound: NC(=O)c1ccc(N(C(N)=O)c2c(F)cccc2F)nc1-c1ccc(F)cc1F [VX-702]; assay: as above; conditions: top dose 2 µM; top dose inferred
Description: as §1

Cell Line | AUC | pIC50
ACHN (kidney, adherent) | 0.976 | < 5.70
AN3-CA (endometrium, adherent) | 0.984 | < 5.70
BICR22 (head and neck, adherent) | 0.951 | < 5.70
C3A (liver, adherent) | 0.987 | < 5.70
CAKI-1 (kidney, adherent) | 0.948 | < 5.70
Daoy (medulloblastoma, adherent) | 0.988 | < 5.70
EFM-19 (breast, adherent) | 0.966 | < 5.70
HMV-II (melanoma, adherent) | 0.974 | < 5.70
HOP-92 (large cell lung carcinoma, adherent) | 0.981 | < 5.70
HeLa (cervix, adherent) | 0.972 | < 5.70
JHH-6 (liver, adherent) | 0.985 | < 5.70
JHOS-4 (ovary, adherent) | 0.98 | < 5.70
JHU-011 (head and neck, adherent) | 0.947 | < 5.70
KNS-62 (lung squamous cell carcinoma, adherent) | 0.975 | < 5.70
KYSE-510 (oesophagus, adherent) | 0.991 | < 5.70
M14 (melanoma, adherent) | 0.987 | < 5.70
MCF7 (breast, adherent) | 0.986 | < 5.70
MDA-MB-231 (breast, adherent) | 0.979 | < 5.70
MDA-MB-436 (breast, adherent) | 0.984 | < 5.70
ME-180 (cervix, adherent) | 0.973 | < 5.70
MKN45 (stomach, adherent) | 0.929 | < 5.70

Cell Line | AUC | pIC50
Mewo (melanoma, adherent) | 0.977 | < 5.70
NCI-H838 (lung adenocarcinoma, adherent) | 0.987 | < 5.70
NCI-H1703 (lung adenocarcinoma, adherent) | 0.982 | < 5.70
NCI-H2029 (small cell lung carcinoma, adherent) | 0.992 | < 5.70
OAW-42 (ovary, adherent) | 0.985 | < 5.70
OCUM-1 (stomach, adherent) | 0.987 | < 5.70
OVCAR-5 (ovary, adherent) | 0.982 | < 5.70
PA-TU-8988T (pancreas, adherent) | 0.982 | < 5.70
PANC-08-13 (pancreas, adherent) | 0.973 | < 5.70
RCC-MF (kidney, adherent) | 0.953 | < 5.70
RMG-I (ovary, adherent) | 0.983 | < 5.70
SAT (head and neck, adherent) | 0.901 | < 5.70
SK-MEL-24 (melanoma, adherent) | 0.978 | < 5.70
SKN-3 (head and neck, adherent) | 0.906 | < 5.70
SW756 (cervix, adherent) | 0.984 | < 5.70
SW1990 (pancreas, adherent) | 0.984 | < 5.70
U251 (glioma, adherent) | 0.986 | < 5.70
U-266 (myeloma, semi-adherent) | 0.971 | < 5.70
UM-UC-3 (bladder, adherent) | 0.987 | < 5.70
UMC-11 (lung carcinoid, adherent) | 0.976 | < 5.70
